# Data: article PMC10726135
# The other results are listed elsewhere or left out. At the low end of the ranking the order means little. The protein was read in a cell extract, so binding may be indirect.
# Biological target: T1, HNF4alpha2 (COS-7 nuclear extract) (UniProt P41235)
# T1 sequence: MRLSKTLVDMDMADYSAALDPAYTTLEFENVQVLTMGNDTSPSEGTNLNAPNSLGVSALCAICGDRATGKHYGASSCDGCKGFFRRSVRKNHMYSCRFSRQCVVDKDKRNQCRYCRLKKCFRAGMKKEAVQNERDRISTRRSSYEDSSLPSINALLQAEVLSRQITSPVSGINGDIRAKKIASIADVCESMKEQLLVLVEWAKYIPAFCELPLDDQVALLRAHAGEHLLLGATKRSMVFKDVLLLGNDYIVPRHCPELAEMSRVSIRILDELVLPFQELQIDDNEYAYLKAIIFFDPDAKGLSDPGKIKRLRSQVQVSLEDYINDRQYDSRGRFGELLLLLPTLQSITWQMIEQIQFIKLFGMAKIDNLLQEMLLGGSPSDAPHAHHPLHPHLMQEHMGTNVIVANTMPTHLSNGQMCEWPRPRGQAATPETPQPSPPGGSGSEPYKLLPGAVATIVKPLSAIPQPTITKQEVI
# Experiment: protein-binding microarray
# Details: COS-7 nuclear extract on double-stranded Agilent 4x180k PBM; binding buffer, salt, pH and temperature not given; high values mean tight binding; double strand, one strand shown; sequences stand for … in …GCCTAGGGAGATTAGAGTATCGGTCGA
row,Sequence,binding signal (log2 normalized intensity)
1,CTGGCCTCCTGCGGTCCGGACTCTGCCCCA,4.41
2,GAAAAGACAGGGTAATTTACAGAACTCTTC,-1.16
3,CTAACCTTTGACCATCCACGGATGCATGAT,3.51
4,GTCTAGCTTGTTCTCTCCCCCAACCCCACC,5.54
5,TTAAACTGCCGCGCCACTGCGTCCAGCCAC,-1.2
6,TGCTCTCTGTCCCTGCACCCTACCCCCATA,4.72
7,GCCTGCATGGGCTGTCACCTTTACCCCCAC,5.09
8,CGGCGGGGTCACGTGGGGCCGGTACAAAAG,1.37
9,TACTGCCTCAGGGAGGAGTTGTCATCATAA,-0.82
10,ATATGTGCCTGCCTTATACAACCTCTGTAA,0.759
11,AGAATGAGACCTGCTAGGCTGCATTCTCTG,-0.977
12,AAACTGGAGGCCGCGACAAGCGTCGCTGAG,-1.26
13,TTCTGTCCTCTCAAAGTCCACCCGGCCAGC,4.04
14,AAGTAGCCTGGTCAGGAACAAAGGTCACAG,5.05
15,TCCCTTTGATATTTATCAAGATGAACTTTG,4.93
16,AGATAAGAAAGAATCAGCACAAGAATGCTA,-1.05
17,TCTTCAGGCTGGGGCCCCATCGACCTTTGC,6.79
18,AAACAAAAGCTGCTTCTGTAAAACTCCTGT,-1.09
19,GAGCCTGCAAGGGAGACCAGGAAAGTGAAT,-1.08
20,GCAGGTTCTCAGGCCAATCATATCTCCCAG,-1.06

row,Sequence,binding signal (log2 normalized intensity)
1,GTCTGCTACCATCAGATAAGCTCAGGAGAA,-1.2
2,AAGGACTGTTGGACCTCGAACTCCAGTGGG,2.31
3,ACTTGTCTCACATCTGATAGCTAAACCAGA,-1.12
4,CAGATACCCAGGCATATCCAACCTTCTCCC,-1.11
5,GTGTGCGTGGGTGGGAAATCATTCCAGCTA,-1.25
6,CCCATGGTCTGTAGAAGGCGCTGTGAAGCA,-1
7,ATTTGGCTTTGAATTCCACTTCTACCACTT,1.01
8,CCCTGGTCTCTCTTACCCAACCAAAAACAA,3.11
9,TACACAGCTGATGGAAGTTTGCCCTGGTTG,2.18
10,TGCATTGGAGGCCAGATGCCAACTGTGGAC,1.27
11,CCTCTCAGGAATGTGGATGCTAAAAGTGAA,0.734
12,TCCTCATTCACCAGGCAATCAGCCTTAGGT,-1.2
13,AATTCCAGTTTGGACTTTGATCCTGATGAC,9.15
14,CACCAAAGCCCAAGGGATCGTCCAAATACC,-1.17
15,TGTAGGGAGTGGTTCCCACAGCCCAACTCG,-1.18
16,CAAGCCGTTCCCTGTACCTAGAATTCTTTC,-0.326
17,CGGCCGACGTGACCCGCCGCCCGAGGTCAC,3.01
18,TTCCCTTATCAGGACTTTGTGATTACATTG,2.35
19,GGTGGTGACCCCAGACCTTAGTCTTCATGG,1.47
20,TGGTGCTATGTCCCTGACTGTGTGGCTTGC,0.959
